# Experimental data: PubChem BioAssay AID1645882 (National Center for Advancing Translational Sciences (NCATS), 2021)
# About 120 (0.75%) of roughly 16,000 compounds were called active. Roughly 4% stayed inconclusive and do not appear here. The call rests on the fitted dose curve; in most records, active means well fitted inhibition curve with a large enough effect; inconclusive means small, poorly fitted or top-dose-only effect; inactive means no such curve, though single readings can be large or run the other way. Some of the results follow.
# Biological target: Rap guanine nucleotide exchange factor 3 (Homo sapiens) (UniProt O95398)
# Assay: Validation qHTS for antagonist of cAMP-regulated guanine nucleotide exchange factor 3 (EPAC1);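 further: plate controls were DMSO for no effect and ATA control for full effect; nearly all actives have a fitted effect of over 75% in size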
# Settings: EPAC1 Rap1B-BODIPY-GDP exchange, fluorescence; series mostly up to 150 µM; activity change, negative = inhibition: at the top concentration
# Procedure, shortened: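 Nucleotide exchange followed as fluorescence loss when BODIPY-GDP leaves Rap1B (480 nm excitation, 540 nm emission), read at 5 min intervals over 30 min. Reaction: 100 nM EPAC1, 250 nM RAP1B-BODIPY-GDP, 50 uM GDP; ATA and DMSO define normalization.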
# Sequence of UniProt O95398 (O95398 whole entry, looked up): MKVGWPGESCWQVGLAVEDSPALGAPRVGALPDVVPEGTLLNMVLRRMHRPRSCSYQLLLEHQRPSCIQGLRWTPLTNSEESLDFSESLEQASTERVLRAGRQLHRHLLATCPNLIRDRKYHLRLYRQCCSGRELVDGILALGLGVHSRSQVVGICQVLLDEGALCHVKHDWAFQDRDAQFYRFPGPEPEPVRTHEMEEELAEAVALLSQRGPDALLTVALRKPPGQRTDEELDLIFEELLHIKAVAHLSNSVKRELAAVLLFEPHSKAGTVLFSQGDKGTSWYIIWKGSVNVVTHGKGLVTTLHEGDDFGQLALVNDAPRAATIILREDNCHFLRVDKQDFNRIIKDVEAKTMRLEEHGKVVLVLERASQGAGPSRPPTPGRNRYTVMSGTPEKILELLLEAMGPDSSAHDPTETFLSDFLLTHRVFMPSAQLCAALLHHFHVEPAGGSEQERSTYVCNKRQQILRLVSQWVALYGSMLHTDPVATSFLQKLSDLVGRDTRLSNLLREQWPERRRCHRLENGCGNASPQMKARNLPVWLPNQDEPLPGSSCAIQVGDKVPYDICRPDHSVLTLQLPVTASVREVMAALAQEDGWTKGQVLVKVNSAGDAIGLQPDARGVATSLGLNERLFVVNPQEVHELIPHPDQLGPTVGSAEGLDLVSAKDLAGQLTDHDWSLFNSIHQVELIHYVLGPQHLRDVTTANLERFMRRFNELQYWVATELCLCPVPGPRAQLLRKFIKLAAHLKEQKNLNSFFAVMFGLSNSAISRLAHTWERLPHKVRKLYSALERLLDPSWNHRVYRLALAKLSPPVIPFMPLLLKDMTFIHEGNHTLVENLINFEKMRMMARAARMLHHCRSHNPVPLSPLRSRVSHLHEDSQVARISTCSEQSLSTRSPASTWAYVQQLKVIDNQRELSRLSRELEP
row,SMILES,"activity change, negative = inhibition"
1,O=C(Oc1ccccc1)N1CCC2(CC1)CN(c1ncccn1)C2,inactive: 8.09%
2,C[C@@H](O)[C@H]1C(=O)N2C(C(=O)O)=C(S[C@@H]3CN[C@H](CNS(N)(=O)=O)C3)[C@H](C)[C@H]12,inactive: 10.9%
3,COc1ncc2nc(-c3cc(F)cc(F)c3)c(=O)n(CCc3ccccc3)c2n1,inactive: 0.491%
4,N[C@@](C(=O)O)(c1ccc(P(=O)(O)O)cc1)C1CC1,inactive: -4.62%
5,C=CC(C1=CC(=O)C(OC)=CC1=O)c1ccc(OC)cc1 (centres undefined),inactive: -2.47%
6,O=C(c1c(O)c2ccc(Cl)cc2[nH]c1=O)C1CC1,inactive
7,CC(C)(C#N)c1cc(Cn2cncn2)cc(C(C)(C)C#N)c1,inactive: 10.2%
8,CC(C)Cn1cnc2c1c(=O)n(C)c(=O)n2C,inactive: -10.4%
9,COc1ccc(-c2nc3cnc(Oc4cccc(Cl)c4)nc3n(C[C@H]3CCCO3)c2=O)cc1,inactive: 3.69%
10,CO[C@H]1C[C@H](O[C@H]2[C@H](C)[C@@H](O[C@@H]3O[C@H](C)C[C@H](N(C)C)[C@H]3O)[C@@H](C)C[C@]3(CO3)C(=O)[C@H](C)[C@@H](O)[C@@H](C)[C@@H](C)OC(=O)[C@@H]2C)O[C@@H](C)[C@@H]1O,inactive: -0.561% [at 75.8 µM]
11,CCCCCCCCCCCCCCC[C@H](O)[C@H](N)CO,inactive: -1.07% [at 75.8 µM]
12,C[N+](C)(C)CCO,inactive
13,COC(=O)/C=C/c1cc(O)ccc1O,inactive: 9.46%
14,COc1ccc(-c2cc(=O)c3cc(OC)ccc3o2)cc1,inactive: -8.01%
15,COc1ccc(-c2oc3c(CC=C(C)C)c(O[C@H]4OC(CO)C(O)C(O)C4O)cc(O)c3c(=O)c2O[C@@H]2OC(C)C(O)C(O)C2O)cc1 (some centres undefined),inactive: -6.44%
16,CC(=O)c1ccc2c(c1)N(CCCN(C)C)c1ccccc1S2,inactive: 14.2% [at 75.8 µM]
17,COc1cccc(-c2cc(=O)c3ccccc3o2)c1N,inactive
18,C=CCNC(N)=S,inactive: 7.12%
19,CN(C)CCOC(C)(c1ccccc1)c1ccccn1 (centres undefined),inactive
20,COC(=O)[C@@H]1CCCN1Cc1ccc2c(c1)CN(Cc1ccccc1F)CCO2,inactive: 22.4%
21,CC(=O)OC1CC2C(C)(C)C(O)CC(O)[C@@]2(C)C2CC[C@@]3(C)C(=CC(=O)OC3c3ccoc3)[C@]12C (some centres undefined),inactive: -4.66%
22,COc1cccc(-c2nc3cc4c(cc3cc2CN(C(=O)c2csc(C)n2)C2CC2)CCC4)c1OC,inactive: 5.84%
23,Cn1c(=O)c(CCc2ccccc2)nc2cncnc21,inactive: -1.85%
24,Cn1ccc(O)c(C#N)c1=O,inactive: -16%
25,COC(=O)c1c(OCc2cccnc2)cc(=O)n2c1CCN(Cc1cc3c(cc1Cl)OCO3)CC2,inactive: -7.61%
26,N#Cc1ccc(CN2CCCC3(CCN(C(=O)c4ccncc4)CC3)C2)cc1,inactive: 14.9%

row,SMILES,"activity change, negative = inhibition"
1,NC(=S)NS(=O)(=O)c1ccc(N)cc1,inactive: 13.9%
2,CN(C(=O)C(Cl)Cl)c1ccc(OC(=O)c2ccco2)cc1,inactive: -11.5%
3,NC[C@](O)(CS(=O)(=O)O)c1ccc(Cl)cc1,inactive: 2.81%
4,C[Si](C)(C)O[Si](C)(C)C,inactive: 3.74%
5,COc1cc(-c2noc(C)c2C#Cc2ccccn2)cc(OC)c1OC,inactive: -0.0485%
6,O=C(C[N+]12CCCc3cccc(c31)CCC2)c1ccc2ccc3cccc4ccc1c2c34,inactive: 4.76%
7,Cc1nc2cnc(OCc3ccccc3)nc2n(Cc2ccc(F)cc2)c1=O,inactive: -26.2%
8,N#Cc1cccc(-c2nc3cnc(N4CCOCC4)nc3n(Cc3ccc(F)cc3)c2=O)c1,inactive: 7.94%
9,COc1ccc(CNc2nc(-c3ccc(C(=O)N(C)C)cc3)nc3ccccc23)c(OC)c1,inactive: -17.5%
10,Cc1oc(-c2ccccc2NC(=O)C2CCCO2)nc1CNC(=O)c1cc(Cl)ccc1F (centres undefined),inactive: 5.05%
11,Cc1cc(=O)c(C(=O)N(C)CCc2ccccn2)c2n1-c1ccccc1SC(c1ccsc1)C2 (centres undefined),inactive: 5.21%
12,Nc1ccn([C@H]2CC[C@@H](CO)O2)c(=O)n1,inactive
13,COc1cc(=O)n2c(c1C(=O)NC(C)c1ccco1)CCN(C(=O)c1cccc(C)c1)CC2 (centres undefined),inactive: 12.1%
14,CC(C)(CNC(=O)c1cnn(-c2nccc(-c3cccs3)n2)c1C1CC1)N1CCOCC1,inactive: 14.5%
15,C[C@@H]1CCN(C(=O)[C@H](CCCN=C(N)N)NS(=O)(=O)c2cccc3c2NC[C@H](C)C3)[C@@H](C(=O)O)C1,inactive: 6.64%
16,O=C(c1cccc(F)c1)N1CCC2(CC1)CCN(C(c1ccccc1)c1ccccc1)CC2,inactive: -5.92%
17,COC(=O)CC[C@H](N)C(=O)O,inactive: 15.8%
18,CCCC(=O)Nc1c(I)cc(I)c(CC(CC)C(=O)O)c1I (centres undefined),inactive: 13.3%
19,CN(C)C(=O)c1ccc(-c2cc(NCc3cccnc3)ncn2)cc1,inactive: 0.223%
20,COc1ccc(NC(=O)N2CC3(CCN(C(=O)c4ccncc4)CC3)C2)cc1,inactive: -0.911%
21,CC(C)[N+]1(C)[C@@H]2CC[C@H]1CC(OC(=O)C(CO)c1ccccc1)C2 (some centres undefined),inactive
22,C[C@](O)(C(=O)Nc1ccc(S(=O)(=O)c2ccccc2)cc1)C(F)(F)F,inactive: -9.04%
23,COC(=O)C1CCN(Cc2ccc3c(c2)CN(C(=O)c2cc(-c4ccc(C)o4)[nH]n2)CCO3)CC1,inactive: 15.9%
24,CNC[C@H](O)c1ccc(O)c(O)c1,inactive
25,CC(C)NCC(O)COc1ccccc1-n1cccc1 (centres undefined),inactive: 11.4%
26,Cn1c(=O)c(-c2cc(F)cc(F)c2)nc2cnc(Oc3ccccc3)nc21,inactive: 9.07%

row,SMILES,"activity change, negative = inhibition"
1,C=CC(=O)Nc1cc2c(Nc3ccc(F)c(Cl)c3)ncnc2cc1OCCCN1CCOCC1,inactive: 11.5%
2,CN(C)c1ncc2nc(-c3ccc(F)cc3)c(=O)n(CCc3ccccc3)c2n1,inactive: 6.02%
3,Cc1cccc(N(C)C(=S)Oc2ccc3c(c2)CCC3)c1,inactive: 16.8%
4,COc1cccc(-c2nc3cc(SC)ccc3cc2CN(C(=O)c2csc(C)n2)C2CC2)c1,inactive: 2.09%
5,COC(=O)Nc1nc2ccc(C(=O)c3cccs3)cc2[nH]1,inactive
6,CN1CCN(CCCN2c3ccccc3Sc3ccc(C(F)(F)F)cc32)CC1,inactive
7,CC(S)C(=O)NCC(=O)O (centres undefined),inactive: 18.2%
8,COc1ccc(OC)c(C(O)CNC(=O)CN)c1 (centres undefined),inactive
9,CCCC(=O)O[C@]1(C(=O)COC(=O)CC)CC[C@H]2[C@@H]3CCC4=CC(=O)CC[C@]4(C)[C@H]3[C@@H](O)C[C@@]21C,inactive: 27.5%
10,CN(C)CCN1C(=O)c2ccccc2N(C)c2ccccc21,inactive: 18.8%
11,CCCC(=O)OC[C@@H](OC(=O)CCC)[C@@H](OC(=O)CCC)[C@H](Cn1c2nc(=O)[nH]c(=O)c-2nc2cc(C)c(C)cc21)OC(=O)CCC,inactive: 123%
12,CC(=O)N1CCC2(CC1)CN(Cc1ccc(C#N)cc1)C2,inactive: -12.1%
13,CN=C(NC#N)NCCSCc1csc(N=C(N)N)n1,inactive
14,Nc1ncc2[nH]cnc2n1,inactive: 25%
15,CN1C(=O)C[C@@H](C(=O)N[C@@H](Cc2cnc[nH]2)C(=O)N2CCC[C@H]2C(N)=O)NC1=O,inactive: 13.1%
16,COC(=O)[C@]12CCC(C)(C)C[C@@H]1[C@@H]1C(=O)C=C3[C@@]4(C)C=C(C#N)C(=O)C(C)(C)[C@@H]4CC[C@@]3(C)[C@]1(C)CC2,inactive: 12.4%
17,Cc1cnc(CNc2ncnc3ccc(-c4ccoc4)cc23)cn1,inactive: 2.06%
18,O=c1[nH]c2cc([N+](=O)[O-])c([N+](=O)[O-])cc2[nH]c1=O,inactive
19,Cc1c[nH]c2ccccc12,inactive: 3.42%
20,N#CCCn1c(=O)c(-c2ccc(Cl)cc2)nc2cnc(N3CCNCC3)nc21,inactive: 1.67%
21,CCCOC(=O)C1NC(=O)N2C(C(=O)OCCC)C(C)(C)S[C@H]12 (some centres undefined),inactive: -1.29%
22,CC(=O)/C(C)=N\O,inactive: -10.9%
23,O=c1cc(-c2ccc(O)cc2)oc2ccc(O)cc12,inactive: 10.4%
24,O=C(c1ccccc1)C(O)c1ccccc1 (centres undefined),inactive: 2.54%
25,OCC[N+]1(CCc2ccccc2)CCOCC1,inactive: 21.5%
26,Cc1cccc(CNc2cc(-c3ccc(N(C)C)cc3)ncn2)c1,inactive: 7.49%

row,SMILES,"activity change, negative = inhibition"
1,C[C@H]1O[C@@H](n2cc(F)c(=O)[nH]c2=O)[C@H](O)[C@H]1O,inactive: -1.63% [at 75.8 µM]
2,CC(=O)C1=C(O)C=C2Oc3c(C(C)=O)c(O)c(C)c(O)c3[C@]2(C)C1=O,inactive: 21.7%
3,COc1ccccc1-c1cncnc1NCc1cnc(C)cn1,inactive: -7.99%
4,Cc1ccc(CN2CCc3nnc(C(NS(C)(=O)=O)C(C)C)n3CC2)cc1C (centres undefined),inactive: 10.6%
5,CCCCCCCCCCCCCCCCOCC(CO)OC (centres undefined),inactive: 8.2% [at 15.3 µM]
6,COc1cccc(-c2nc(NCc3ccc(OC)cc3OC)c3ccccc3n2)c1,inactive: -8.41%
7,CCOC(C)=O,inactive: 3.43%
8,O=C(CCc1ccc(O)cc1)c1c(O)cc(O)cc1O,inactive
9,O=C(NCC1CCC2(CCN(Cc3cccc4ncccc34)CC2)O1)c1ccccc1 (centres undefined),inactive: -13.6%
10,CN(C)C(=O)c1ccc(-c2cc(Nc3ccccc3)ncn2)cc1,inactive: 2.57%
11,CC(=O)N/N=C/c1ccc([N+](=O)[O-])o1,inactive: 26%
12,Cc1noc(C)c1-c1ccc2ncnc(NCc3ccccc3)c2c1,inactive: 18.8%
13,COc1ccc(-n2c(=O)c(-c3cc(F)cc(F)c3)nc3cncnc32)cc1,inactive: 13.5%
14,CN(C)Cc1ccccc1-c1nccc(NCc2cccs2)n1,inactive: 24.1%
15,C=CCN1CCc2nc(N)sc2CC1,inactive: 24.6%
16,COC(=O)N1CCC2(CC1)CN(c1ccc(-c3ccccc3)cc1)C2,inactive: 4.19%
17,c1cnc2c(-c3nccc4c3[nH]c3ccccc34)cccc2c1,inactive: -2.57%
18,CCC1(C2CCN(Cc3cccc4ccccc34)CC2)NC(=O)N(Cc2ccc3c(c2)OCO3)C1=O (centres undefined),inactive: -9.16%
19,Cc1ccc(C(=O)Nc2cccc(-c3nc(CNC(=O)[C@@H]4C[C@@H](C)NC(=S)N4)c(C)o3)c2)s1,inactive: 3.59%
20,CN(Cc1ccco1)c1nc(-c2ccoc2)nc2ccccc12,inactive: -2.54%
21,c1ccc2c(NC3CC3)nc(-c3ccoc3)nc2c1,inactive: 9.84%
22,CCOC(=O)O[C@]1(C(=O)COC(=O)CC)CC[C@H]2[C@@H]3CCC4=CC(=O)C=C[C@]4(C)[C@H]3[C@@H](O)C[C@@]21C,inactive: 6.95% [at 75.8 µM]
23,COc1ccc(NC(=O)N2CC[C@@]3(CCCN(C(=O)c4cc(C(F)(F)F)cc(C(F)(F)F)c4)C3)C2)cc1,inactive: 13.8%
24,O=C(c1cccc(N2CCCC2=O)c1)N1CCC(Oc2cccc(CN3CCN(c4ccccn4)CC3)c2)CC1,inactive: 13.5%
25,NC(N)=NC(N)=NCCc1ccccc1,inactive
26,COc1ccccc1-c1cc(N(C)Cc2ccco2)ncn1,inactive: -12.3%
